The target of test [1] is GST-GATE16 (UniProt P60520). Description: pull-down; GST-fusion proteins on glutathione-Sepharose beads incubated with whole cell lysates of transfected HEK293T cells for 12 h at 4 °C; washed five times with PBS; immunoblot with anti-GFP or anti-Flag; only the target purified. In general terms: In western blotting, separated proteins are transferred to a membrane and probed.

The chains behind the UniProt entries cited, without tags or fusion partners. Where a name states a change or a piece, a line headed by the entry shows the natural chain unless it says otherwise.
UniProt P60520: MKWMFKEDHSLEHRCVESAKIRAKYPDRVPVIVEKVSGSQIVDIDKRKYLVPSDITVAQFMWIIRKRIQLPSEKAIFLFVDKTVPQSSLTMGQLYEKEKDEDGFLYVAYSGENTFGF
UniProt O95166: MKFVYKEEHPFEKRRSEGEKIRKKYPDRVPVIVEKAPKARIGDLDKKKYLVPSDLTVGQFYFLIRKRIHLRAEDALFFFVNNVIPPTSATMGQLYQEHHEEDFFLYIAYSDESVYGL
UniProt Q9H082: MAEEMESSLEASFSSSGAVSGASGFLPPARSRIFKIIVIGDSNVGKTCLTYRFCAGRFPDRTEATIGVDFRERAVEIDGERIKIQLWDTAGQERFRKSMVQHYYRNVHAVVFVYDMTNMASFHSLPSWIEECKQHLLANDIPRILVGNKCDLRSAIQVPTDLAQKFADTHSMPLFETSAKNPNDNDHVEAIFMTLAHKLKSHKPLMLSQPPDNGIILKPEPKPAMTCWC

Test [2] has as its target T1, GFP-TRPML3 (UniProt Q8TDD5).
T1 sequence: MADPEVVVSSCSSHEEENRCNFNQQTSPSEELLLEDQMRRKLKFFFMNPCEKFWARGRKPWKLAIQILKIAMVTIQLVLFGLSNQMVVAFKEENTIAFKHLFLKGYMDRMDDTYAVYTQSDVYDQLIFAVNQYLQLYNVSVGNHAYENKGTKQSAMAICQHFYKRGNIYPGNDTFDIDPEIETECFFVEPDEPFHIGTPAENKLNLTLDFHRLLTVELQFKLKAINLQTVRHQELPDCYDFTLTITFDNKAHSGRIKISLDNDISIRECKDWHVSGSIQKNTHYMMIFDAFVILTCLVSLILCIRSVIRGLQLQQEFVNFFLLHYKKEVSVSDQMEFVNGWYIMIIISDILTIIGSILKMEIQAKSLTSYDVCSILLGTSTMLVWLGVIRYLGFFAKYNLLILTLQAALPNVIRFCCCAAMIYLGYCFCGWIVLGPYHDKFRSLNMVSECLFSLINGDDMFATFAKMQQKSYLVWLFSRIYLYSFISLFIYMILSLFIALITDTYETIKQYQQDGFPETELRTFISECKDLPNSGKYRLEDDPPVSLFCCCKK
Put plainly: co-IP; lysates of transfected HEK293T cells (50 mM HEPES, 150 mM NaCl, 2 mM MgCl2, 1% Triton X-100); anti-GFP antibody, protein A agarose, 4 °C; washed with 0.5% Triton X-100 in PBS; probed with anti-Flag; in some panels cells fed or serum-starved 2 h, or lysate with vehicle or 0.5 mM GTP.

Test [3] has as its target GFP-GATE16 (UniProt P60520). The description is as above.
For test [4], the target named is GST-LC3A (human) (UniProt Q9H492). Description: pull-down; GST-fusion proteins on glutathione-Sepharose beads incubated with whole cell lysates of transfected HEK293T cells for 12 h at 4 °C; washed five times with PBS; immunoblot with anti-GFP or anti-Flag; only the target purified.
In test [5] the target is GST-GABARAP (human) (UniProt O95166). The description is as above.
In test [6] the target is T2, TRPML3 (endogenous) (human (endogenous in HEK293T)) (UniProt Q8TDD5).
T2 sequence: T1 sequence
Description: co-IP; endogenous proteins: HEK293T lysates precipitated with control IgG or anti-TRPML3 antibody, probed with anti-RAB33B antibody.

Test [7] concerns the target GFP-RAB33B (human) (UniProt Q9H082). Put plainly: co-IP; lysates of transfected HEK293T cells (50 mM HEPES, 150 mM NaCl, 2 mM MgCl2, 1% Triton X-100); anti-GFP antibody, protein A agarose, 4 °C; washed with 0.5% Triton X-100 in PBS; probed with anti-Flag; in some panels cells fed or serum-starved 2 h, or lysate with vehicle or 0.5 mM GTP.
In test [8] the target is GFP-RAB33B(Q92L) (human) (UniProt Q9H082). The test is described as above.
The target in test [9] is GFP-GATE16 (UniProt P60520). Described as above. The source holds these as a separate data set.
In test [10] the target is GFP-RAB33B(T47N) (human) (UniProt Q9H082). The test is described as above.

Like-named read-outs stand apart in the source and are kept apart here. These are yes or no findings as the source states them, for the method shown. In cells and extracts the contact can be indirect. Some entries that bind do so weakly or less than the wild type. For some assays here: Tags and fused reporters may be left off the sequences shown.

Turning to Flag-RAB33B (from UniProt Q9H082 1-229), the binding entry in test [1], in test [2] and in [3] was “binds” each time.
As to GFP-TRPML3 (from UniProt Q8TDD5 1-553), the binding entry in test [1], in [4] and in test [5] was “binds” throughout.
With “Flag-RAB33B(Y104A, V107A) (from UniProt Q9H082 1-229)”, the binding entry is listed as “no binding” in test [1] and “binds weakly” in [2].
In the case of “RAB33B (endogenous) (from UniProt Q9H082 1-229)”, in [6], the binding entry is recorded as “binds”.

B1: Flag-TRPML3 (protein, UniProt Q8TDD5 1-553)
chain: T1 sequence
Consider B1, for which the binding result in test [7], in test [8], in test [9], in test [10] and in [1] was “binds” in each case.
